Measured values: the BET-seq Pho4 binding data (Le et al. 2018)
The other results are listed elsewhere or left out. These are noisy estimates, calculated here from bound and input reads.

Target: T1, Pho4 (S. cerevisiae) (UniProt P07270)
T1 sequence: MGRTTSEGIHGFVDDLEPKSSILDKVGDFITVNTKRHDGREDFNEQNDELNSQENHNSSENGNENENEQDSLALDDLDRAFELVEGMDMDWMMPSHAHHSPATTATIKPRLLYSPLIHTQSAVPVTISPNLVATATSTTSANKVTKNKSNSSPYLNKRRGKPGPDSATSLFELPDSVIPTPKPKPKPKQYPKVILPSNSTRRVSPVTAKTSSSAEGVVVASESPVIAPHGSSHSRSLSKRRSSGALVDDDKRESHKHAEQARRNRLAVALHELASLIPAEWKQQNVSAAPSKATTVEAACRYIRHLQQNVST
Assay: relative binding free energy (BET-seq); higher = weaker binding
Conditions: reference: library average

Sequence	relative binding free energy [kcal/mol]
AGAGGCACGTGGGCTG	-0.22
AGTGTCACGTGCTTAA	-0.11
CGGATCACGTGTTCGT	0.21
AGATTCACGTGATATT	0.34
TGGGGCACGTGCAGGG	-0.25
GCTTTCACGTGGATGT	0.28
ATATTCACGTGTGTGT	0.23
GCGTACACGTGTGAGG	0.16
GTTGCCACGTGTGAGA	0.2
AGTGTCACGTGTGTCT	-0.05
AGCGGCACGTGTGAAG	0.06
GGCTGCACGTGTAAGT	0.19
TGGGGCACGTGTTAAT	-0.09
AGTTGCACGTGTCTAT	0.1
ATAGACACGTGGGAAT	-0.05
TTGTGCACGTGGAAAG	-0.04
AATTTCACGTGGAATA	0.3
GTATGCACGTGTAGAA	0
TGGGCCACGTGCTAGG	-0.16
TGATGCACGTGTGGGT	0.05
GTTATCACGTGGTGTG	0.08
AAAGACACGTGAGCTG	0.47
TGTTACACGTGTATGG	0.09
ATAGACACGTGTATTT	-0.07
TAGCGCACGTGTTCGT	-0.08
GGGACCACGTGGGTTT	-0.02

Sequence	relative binding free energy [kcal/mol]
TGAGCCACGTGCGGTG	-0.03
CGTAACACGTGTAGGT	0.02
ATGCCCACGTGGTGGT	-0.23
TATTACACGTGAGTGG	0.27
TGTTTCACGTGAGCGG	0.32
TAATGCACGTGTGGCA	-0.07
GATGTCACGTGGCGGC	-0.02
AGTTACACGTGAATTT	0.29
AGTTTCACGTGAATGT	0.36
ATTTACACGTGATTAT	0.16
TATTACACGTGGTAAT	-0.04
AATATCACGTGGGGTC	-0.1
ATAAGCACGTGTTCTG	-0.04
GGTGGCACGTGTATAA	-0.04
GGTGACACGTGAGATG	0.36
TGGTGCACGTGTTAAA	-0.06
CCTGGCACGTGGGGGG	-0.42
TGGGGCACGTGTTACA	-0.06
ACGGTCACGTGATTGG	0.34
GACGTCACGTGGGTCG	0.08
GGGTGCACGTGTGTCA	0.05
GGTGGCACGTGGAGAC	0.03
AGTTCCACGTGTGTTT	0.24
AGTGTCACGTGGAACG	0.12
TGCGGCACGTGATGTC	-0.04
CGGGGCACGTGCGTGT	-0.2

Sequence	relative binding free energy [kcal/mol]
GGGCACACGTGGTAGT	0.14
AGGGGCACGTGTGTCA	-0.18
TATTTCACGTGATGGT	0.25
TAGGTCACGTGGCAGG	-0.05
TTCTGCACGTGGTGAT	-0.1
GGCGGCACGTGAGGTA	0.28
GGGTCCACGTGGCGGT	-0.09
ACAGTCACGTGTGTAT	0.12
GTAGGCACGTGGTGAC	-0.19
TTGGGCACGTGAGACT	0.29
AGTACCACGTGTATGT	-0.11
TGATGCACGTGATAGA	0.06
AGACGCACGTGTGTTA	-0.06
TGTCGCACGTGGTGAG	-0.09
TGTGTCACGTGGAGGA	0
AGCTACACGTGTGTGT	-0.05
AATTTCACGTGAGATG	0.32
GGGCTCACGTGAGAGG	0.34
GTTTTCACGTGTACAG	0.35
GGTGGCACGTGAGGGT	0.19
TTATACACGTGGTAAA	-0.03
GTAGACACGTGAGCTG	0.28
TGAGGCACGTGGGCCA	-0.25
TTAGTCACGTGGGATG	-0.1
CAGGGCACGTGCGGTG	-0.38
GGGGGCACGTGTGGCT	0.04

Sequence	relative binding free energy [kcal/mol]
TGGTGCACGTGTCGTA	-0.09
TATTACACGTGTAAGT	0.22
GGGGTCACGTGGCTGT	0.04
GGGGACACGTGTTCAG	0.03
GGTGGCACGTGTATGC	-0.11
GTTCACACGTGACGGG	0.22
TGTGCCACGTGTTATT	-0.14
GTGGTCACGTGGTATG	0.02
AGTCACACGTGAAGGG	0.3
TATGGCACGTGACGGG	-0.1
AGCATCACGTGTATTT	0.13
AGGTGCACGTGAAAAG	0.24
CTGCTCACGTGTGGTA	0.18
ATGGTCACGTGTTTAA	0.04
AGTAACACGTGTGGCG	-0.05
GTTTTCACGTGTGTAC	0.48
AGGTACACGTGTGTTC	0.03
AATTCCACGTGAGGGT	0.25
CAGGTCACGTGTGTTC	0.17
TAGTACACGTGGGTCA	-0.06
AAGTCCACGTGTTTAT	0.18
GGTGACACGTGTAGGG	0.08
TTAGTCACGTGATCGG	0.1
ACATGCACGTGTGGGT	-0.05
TGTTGCACGTGATATG	0.04
AAATTCACGTGTGTGC	0.24

Sequence	relative binding free energy [kcal/mol]
GGGGACACGTGACGGC	0.28
GTCGCCACGTGGGATG	-0.15
TTTGACACGTGTATGC	0
CTTGGCACGTGTGAGG	-0.06
GTCATCACGTGGTTGT	0.15
AGGCGCACGTGGGTTG	-0.21
AGCGTCACGTGTGTCG	0.07
GGGAGCACGTGAAGAT	0.18
TTACTCACGTGTAAGG	0.17
GGCATCACGTGGTCGG	0.19
CTGAGCACGTGGTGGC	-0.17
GTTTGCACGTGGTACA	-0.07
GTCAGCACGTGTATGA	0.16
AGGGCCACGTGGGCTT	-0.2
ATAGACACGTGGCTTG	-0.03
TTTGCCACGTGGCATG	-0.02
TGGATCACGTGGTAGC	0.13
TAAGGCACGTGGTGAA	-0.28
TATTGCACGTGGGACA	-0.15
GAAGCCACGTGGGGGG	-0.17
TGCGCCACGTGGGGTG	-0.24
GTAATCACGTGTTCGG	0.24
GGGTGCACGTGTACTA	-0.03
GTGCCCACGTGGGGGC	-0.25
TAGGGCACGTGGCTTG	-0.15
GGCTGCACGTGGCTTG	-0.08

Sequence	relative binding free energy [kcal/mol]
AAGAACACGTGAGTGT	0.36
TGAGGCACGTGGGAAT	-0.03
GAGCACACGTGAGGTG	0.43
TGTTGCACGTGGGGGA	-0.18
TAGATCACGTGTGGAA	0.19
GTGGACACGTGGAAGA	0.19
GATGGCACGTGTGCAT	-0.04
TGCTGCACGTGTGTGA	0.07
TATTGCACGTGGTGCT	-0.14
TTCCTCACGTGGGGAG	0.18
ATGGCCACGTGTGGAG	-0.08
TCACGCACGTGGGGGT	-0.32
TCAGTCACGTGTTTTA	0.11
TTTGGCACGTGAGGTC	0.18
TTTCTCACGTGTGGAG	0.04
GCTATCACGTGTTGTA	0.39
TTGCTCACGTGGTTTT	0.08
AGGCTCACGTGAGGTG	0.31
AAAGGCACGTGGTGGC	-0.11
AGCGCCACGTGGGTTT	-0.19
CGAGTCACGTGGTGTG	0.05
GGTTACACGTGGTTCA	0.17
GTTGCCACGTGTGCAG	-0.03
TAGAGCACGTGGTGTT	-0.22
GGTTACACGTGCTTGT	-0.03
GGTGGCACGTGAATCG	0.33

Sequence	relative binding free energy [kcal/mol]
GCTGACACGTGTGTTG	0.01
ACTGGCACGTGAAGTG	0.12
GGTTGCACGTGCATTT	0.15
ACGTGCACGTGGTTTG	-0.03
GTTAACACGTGTAGTA	0.03
TGAGGCACGTGGCAAG	-0.22
GGTAGCACGTGTTCGG	0.03
TGCGGCACGTGGTGAC	-0.02
TGAAACACGTGATGTT	0.27
CTGTGCACGTGGTTTT	0
TAGTTCACGTGGAGAA	0.13
GTAAACACGTGGTCTT	-0.09
GGGTTCACGTGTAACG	0.25
GGTTGCACGTGTTACT	0.03
TAATGCACGTGACTGG	0.04
GGCTTCACGTGAACGG	0.51
TAAAGCACGTGGGAGG	-0.26
TTGTGCACGTGTGGCG	-0.03
TATGTCACGTGCAGTT	0.07
GATGGCACGTGATGCA	0.16
TGTGGCACGTGGAGAA	-0.05
TCGTTCACGTGAGATT	0.36
CTTGTCACGTGGAGTA	-0.06
ATTCGCACGTGAATGT	0.2
TATTACACGTGTGTGG	-0.02
TGACGCACGTGTTTGT	-0.15

Sequence	relative binding free energy [kcal/mol]
GGGACCACGTGAGTGG	0.22
TTACTCACGTGGGGGG	0
AATGTCACGTGAATAG	0.24
CTTTACACGTGATATG	0.16
GGATTCACGTGTAGCT	0.21
GGGGTCACGTGCGGAG	0.1
GAGGGCACGTGGGCCT	-0.14
ATTGCCACGTGTTGGT	-0.02
ATAGGCACGTGCTGGG	-0.2
GCAGGCACGTGCGGGT	-0.12
CGTTCCACGTGAAGGG	0.37
CATGGCACGTGTGGTA	-0.01
TATGTCACGTGGGTAA	-0.09
TATGGCACGTGATGAG	-0.06
TTATCCACGTGCGGTG	0.1
GGTTCCACGTGGGTCA	-0.04
TAGCTCACGTGGTGGA	0.04
TATCGCACGTGTGTGG	-0.12
TAAGTCACGTGTGGGA	0.11
TCATTCACGTGGATGG	0.31
TGTAGCACGTGCTATT	-0.12
GATGTCACGTGTTCTG	0.02
TTCATCACGTGTGGAG	0
GGTTTCACGTGTAGTA	0.34
GGTATCACGTGGGCAT	0.02
GTACGCACGTGGGTGC	-0.23

Sequence	relative binding free energy [kcal/mol]
CATTTCACGTGAGTTT	0.33
GTTCGCACGTGGCGGT	-0.09
CGTGGCACGTGGGCGC	-0.26
GCTATCACGTGTGTAG	0.13
TTAGTCACGTGACTAG	0.19
GGGAGCACGTGTAGGG	-0.08
GAGTGCACGTGGTAAG	-0.03
GGGTTCACGTGGAGTA	0.23
GGTTGCACGTGTGGAC	0.09
TGTGTCACGTGGATGT	-0.03
AGTATCACGTGATCGT	0.3
TGTGGCACGTGTCAGA	-0.16
TGACGCACGTGGATTG	-0.05
GATGGCACGTGATTGA	0.12
CGTATCACGTGTTTGT	0.08
TCCTTCACGTGGTATT	0.29
GGATGCACGTGTGGTG	0.05
TTTAGCACGTGTTAGT	-0.21
GGTTACACGTGAGGCG	0.43
TTGATCACGTGGATTG	0.25
AGGTTCACGTGTCTTT	0.3
ATCGACACGTGTTTTT	0.18
